Reference: paper PMC4336329 (PLoS ONE, 2015)
In all, about 310,000 compounds went through this assay and about 2,200 (0.71%) showed an effect of 50% or more. Effects have a minus sign here. The list shows a part of the results.

Biological target: human ether-à-go-go-related gene (hERG) potassium channel (human, UniProt Q12809)
Assay: primary screen, population patch clamp on CHO cells stably expressing hERG

human ether-à-go-go-related gene (hERG) potassium channel, sequence (Q12809 whole entry, looked up): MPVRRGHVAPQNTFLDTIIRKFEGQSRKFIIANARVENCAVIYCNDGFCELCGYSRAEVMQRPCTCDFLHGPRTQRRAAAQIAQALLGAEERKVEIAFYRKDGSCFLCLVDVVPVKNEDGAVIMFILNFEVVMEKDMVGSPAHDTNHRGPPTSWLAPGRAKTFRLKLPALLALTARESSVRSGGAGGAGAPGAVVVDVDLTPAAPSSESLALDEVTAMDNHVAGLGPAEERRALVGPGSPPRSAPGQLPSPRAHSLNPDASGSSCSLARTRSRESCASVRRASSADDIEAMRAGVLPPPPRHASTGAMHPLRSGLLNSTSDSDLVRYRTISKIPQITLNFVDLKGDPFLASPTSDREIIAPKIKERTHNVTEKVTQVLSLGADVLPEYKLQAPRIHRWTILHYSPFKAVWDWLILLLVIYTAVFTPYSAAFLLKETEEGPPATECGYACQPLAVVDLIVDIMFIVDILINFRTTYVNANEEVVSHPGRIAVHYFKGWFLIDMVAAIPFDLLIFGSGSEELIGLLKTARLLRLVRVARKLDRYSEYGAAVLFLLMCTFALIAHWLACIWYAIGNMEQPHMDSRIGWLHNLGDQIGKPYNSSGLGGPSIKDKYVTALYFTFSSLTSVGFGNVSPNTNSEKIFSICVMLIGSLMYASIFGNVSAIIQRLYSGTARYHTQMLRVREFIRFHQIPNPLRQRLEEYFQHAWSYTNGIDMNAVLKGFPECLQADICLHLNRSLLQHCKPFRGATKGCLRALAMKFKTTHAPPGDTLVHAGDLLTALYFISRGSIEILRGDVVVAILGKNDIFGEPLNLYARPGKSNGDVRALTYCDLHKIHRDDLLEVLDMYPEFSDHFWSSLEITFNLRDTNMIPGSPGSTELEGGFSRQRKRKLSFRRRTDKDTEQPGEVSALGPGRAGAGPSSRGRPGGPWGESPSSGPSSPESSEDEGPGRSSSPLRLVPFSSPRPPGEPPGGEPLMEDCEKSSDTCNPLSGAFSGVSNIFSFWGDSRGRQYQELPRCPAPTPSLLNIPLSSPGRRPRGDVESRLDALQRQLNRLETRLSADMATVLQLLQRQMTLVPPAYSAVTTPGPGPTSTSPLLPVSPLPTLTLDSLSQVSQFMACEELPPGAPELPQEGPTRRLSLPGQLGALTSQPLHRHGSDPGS

| Compound | hERG current change (%, negative = inhibition) at 1uM [%] |
| --- | --- |
| COc1cc(Br)c(C(=O)c2nccc3cc(OC)c(OC)cc23)cc1OC | 10.6 |
| CN(C)C(=O)c1ccc(-c2cc(C(F)(F)F)n(C)n2)s1 | 9.77 |
| CCn1c(=O)cc(OCC(=O)N2CCCC2)c2ccccc21 | 10.9 |
| O=C(COC(=O)c1ccc2ccccc2c1)NCCCc1ccccc1 | 14.9 |
| CCN1CCN(c2nnc(-c3ccc(F)cc3)c3ccccc23)CC1 | -16.1 |
| O=C(CCn1nnc2ccccc21)Nc1nnc(-c2ccccc2F)s1 | 4.64 |
| O=C(CSc1nnc(-c2ccc(F)cc2)c2ccccc12)Nc1ccccc1 | 15.2 |
| CC(=O)c1cccc(NC(=O)COc2ccc(S(=O)(=O)N3CCCCC3)cc2)c1 | 4.37 |
| Cc1ccc(/C=N/N=C/c2ccc(C)s2)s1 | 9.77 |
| COc1ccc(-n2nc(C(=O)O)nc2-c2ccccc2)cc1 | 11.9 |
| O=C(CSc1nnnn1-c1cccc(F)c1)NC1CCCCC1 | 9.66 |
| COCCC(=O)N1CCC(Oc2ccc(C(=O)NC3Cc4ccccc4C3)cc2)CC1 | 11.5 |
| O=S(=O)(NCC(Nc1ccc(Cl)cc1)c1ccccc1)c1ccccc1 (stereo not drawn) | 0.687 |
| O=C(O)CCSCC(=O)Nc1c(C(=O)C2CC2)oc2ccccc12 | 14.2 |
| Cc1ccc(NC(=O)c2ccc(NC3=NC4CS(=O)(=O)CC4S3)cc2)cc1 (stereo not drawn) | 11.1 |
| O=C(CN(C(=O)CNS(=O)(=O)c1ccccc1)C1CCCC1)NCc1ccco1 | 4.65 |
| CCN(CC)c1ccc(NC(=O)c2cccc(F)c2)c(C)c1 | 0.278 |
| COc1cccc(OCCn2cc(C(=O)c3ccco3)c3ccccc32)c1 | 15.4 |
| O=c1[nH]c2ccc(S(=O)(=O)Nc3ccc(Br)cc3)cc2[nH]1 | 13.3 |
| O=C(Nc1ccc2nsnc2c1)NC1CCCCC1 | 3.53 |
| CC(=O)c1c(C(C)=O)c(C)n(C2CCCCC2)c1C | 11 |
| CC(C)C(C)NC(=O)COC(=O)/C=C/c1ccc(S(=O)(=O)N2CCc3ccccc32)cc1 (stereo not drawn) | 15.7 |

| Compound | hERG current change (%, negative = inhibition) at 1uM [%] |
| --- | --- |
| Cc1ccc(N=Nc2ccc(O)c3ncccc23)cc1C | 3.59 |
| CCOCCCn1c(SCC(=O)/C(C#N)=C(\C)N)nc2ccccc2c1=O | 16.9 |
| Cc1occc1C(=O)NCCCCNC(=O)c1ccoc1C | -9.6 |
| COc1ccc2cc(CN(Cc3ccco3)C(c3nnnn3C3CCCCC3)C(C)C)c(=O)[nH]c2c1 (stereo not drawn) | 5.63 |
| Cc1cccc(C)c1Nc1nnc(SC/C(O)=C(\C#N)c2nc3ccccc3[nH]2)s1 | 21.8 |
| Cc1cc(S(=O)(=O)N2CCCCC2CCNC(=O)C(=O)NCC2CCCO2)ccc1F (stereo not drawn) | 6.34 |
| O=C(CCCn1c(SCC(=O)NC2CCCCC2)nc2ccccc2c1=O)NCC1CCCO1 (stereo not drawn) | -27.5 |
| COc1ccc(/C=N/NC(=O)C2c3ccccc3Oc3ccccc32)c(OC)c1 | 11.6 |
| O=C(Oc1cccc(NC2=NS(=O)(=O)c3ccccc32)c1)c1cccnc1 | 22.3 |
| CCCCNC(=O)C(=O)NCCCn1ccnc1 | 9.93 |
| CC(C(=O)Nc1ccccc1-c1ccccc1)N(C)Cc1nc2ccccc2c(=O)[nH]1 (stereo not drawn) | 12.1 |
| O=C(c1cn(Cc2ccccc2)c2ccccc12)N1CCCCC1 | 6.07 |
| Cn1c(=O)c2c(nc(NCCO)n2C)n(C)c1=O | 14.8 |
| COc1ccc(Br)c(C(=O)N2CCN(S(=O)(=O)/C=C/c3ccccc3)CC2)c1 | 1.93 |
| COc1cccc(OCC(O)CNC(=O)c2oc3ccc(C)cc3c2C)c1 (stereo not drawn) | 11 |
| Cc1ccc(NC(=O)CN(C)C(=O)COc2ncnc3ccc(Br)cc23)cc1 | 14 |
| O=C(O)CCCN1C(=O)/C(=C/c2ccncc2)SC1=S | 10.1 |
| COc1ccc(C(CNC(=O)c2ccc3c(c2)OCCO3)N(C)C)cc1 (stereo not drawn) | 10 |
| CN(CC(=O)Nc1cccc(F)c1)C(=O)c1ccc(N2CCOCC2)c([N+](=O)[O-])c1 | -15.1 |
| N#Cc1c(NC(=O)CN2CCN(C(=O)c3ccco3)CC2)sc2c1CCCCC2 | 1.72 |
| Cc1c(Br)c([N+](=O)[O-])nn1C(C)C(=O)NCc1cccs1 (stereo not drawn) | 0.399 |
| Cc1cc(C)c2[nH]c(=O)c(CN(Cc3ccco3)C(=O)C3CCCO3)cc2c1 (stereo not drawn) | 3.59 |

| Compound | hERG current change (%, negative = inhibition) at 1uM [%] |
| --- | --- |
| COc1ccc(CNC(=O)COC(=O)C2=COCCO2)cc1 | 6.94 |
| COc1cccc(C(=O)NC2C(=O)N3C(C(=O)O)=C(COC(C)=O)CSC23)c1 (stereo not drawn) | 10.6 |
| Cc1ccc(N(CN2CCCC2=O)C(=O)c2ccc(OC(C)C)cc2)cc1 | 10.5 |
| O=C(N/N=C/c1ccccc1C(=O)O)c1cccc(S(=O)(=O)N2CCOCC2)c1 | -12 |
| O=C(COC(=O)C1CC2CCCC(C1)C2=O)Nc1nc(-c2ccc(F)c(F)c2)cs1 (stereo not drawn) | 3.96 |
| CCOc1ccc(OCC)c(NC(=O)C2CCCN2S(=O)(=O)c2cccc3cccnc23)c1 (stereo not drawn) | 7.29 |
| O=C(NC(=S)N1CCN(Cc2ccc3c(c2)OCO3)CC1)c1cccc(Br)c1 | 11.1 |
| COc1ccc(C)cc1NC(=O)c1sc2ncnc(N3CCN(c4ccccn4)CC3)c2c1C | 5.86 |
| CCOc1ccc(/C=N/NC(=O)c2ccc(Cn3cc([N+](=O)[O-])cn3)o2)cc1 | 1.9 |
| Cl.O=C(CNC1=NCCC1)c1ccc(Cl)cc1 | 2.52 |
| O=C(CSc1ccc(Cl)cc1)N1CCN(c2ccc([N+](=O)[O-])cc2Cl)CC1 | -9.62 |
| S=c1[nH]ccn1-c1cccc(Cl)c1 | 13.3 |
| Cc1ccc(NC(=O)CCNC(=O)c2ccco2)cc1 | 8.25 |
| Cc1cccc2c(=O)cc(C(F)(F)F)[nH]c12 | 13.8 |
| CCN(C(=O)COC(=O)c1cc(S(=O)(=O)Nc2c(C)n(C)n(-c3ccccc3)c2=O)ccc1Cl)C1CCCCC1 | -0.145 |
| CCCCn1c(N)c(N(CCOC)C(=O)c2cc(-c3ccc(OC)cc3)nc3ccccc23)c(=O)[nH]c1=O | -0.502 |
| COc1ccc(CCN(C)C(=O)c2cc(S(=O)(=O)N3CCCCCC3)ccc2OC)cc1OC | -5.57 |
| CSCCC(NC(=O)c1ccccc1)C(=O)NNC(=O)c1csc(N2CCOCC2)n1 (stereo not drawn) | 9.72 |
| CCOC(=O)C1CCCN(C(=O)/C=C/c2ccc(OC)cc2)C1 (stereo not drawn) | -0.521 |
| COc1ccc(OC)c(/C=C/C(=O)N2CCN(S(=O)(=O)c3ccc(C)cc3C)CC2)c1 | 2.08 |
| COc1ccccc1OCc1nc(C#N)c(N2CC(C)CC(C)C2)o1 (stereo not drawn) | -0.921 |
| O=C(CN1CCCC1)OCCCc1ccccc1 | 17 |

| Compound | hERG current change (%, negative = inhibition) at 1uM [%] |
| --- | --- |
| Cc1cccc(NC2=Nc3ccccc3N3C2=Nc2c(c(C)nn2-c2ccccc2)C3c2ccc(O)c(O)c2)c1 (stereo not drawn) | 3.03 |
| CSc1ccc(C#N)cc1NC(=O)c1cccnc1Cl | 16.3 |
| Cc1ccc(CCNC(=O)C2CCN(S(=O)(=O)N3CCC4(CC3)OCCO4)CC2)cc1 | 9.02 |
| CCc1nnc(NC(=O)CSc2nnc(-c3ccc(NS(=O)(=O)c4ccccc4)cc3)o2)s1 | 17.1 |
| Cc1nc(N2CCC3(CC2)OCCO3)c2nnn(Cc3ccccc3F)c2n1 | 0.16 |
| O=C(O)CCn1cc(-c2ccc(F)cc2)nc1-c1ccncc1 | 11.4 |
| NC(=O)c1cc(N)ccc1N1CCCCC1 | 5.55 |
| Cn1ccnc1SCC(=O)c1c[nH]c2ccccc12 | 16.1 |
| CCOC(=O)c1ccc(NCc2cccnc2)cc1 | 8.24 |
| O=C(NNS(=O)(=O)c1cccc(Cl)c1)c1cc(-c2ccc(F)cc2)nc2ccccc12 | 8.1 |
| CC(=O)c1ccccc1NC(=O)C1CCCN(C(=O)c2ccc(Cl)cc2)C1 (stereo not drawn) | -7.87 |
| CCOc1cc(NC(=O)c2cccs2)c(OCC)cc1NC(=O)CCC(=O)NCCN1CCOCC1 | 11.3 |
| Cc1cc(C)c(C#N)c(SCC(=O)Nc2ccccc2)n1 | 11.4 |
| COc1ccc(N(C(C)C(=O)N/N=C/c2ccc(OC(C)C)cc2)S(C)(=O)=O)cc1 (stereo not drawn) | 4.36 |
| O=C(O)CC(NC(=O)C12CC3CC(CC(C3)C1)C2)c1cccc(Cl)c1 (stereo not drawn) | 7.61 |
| Cc1ccc(S(=O)(=O)NCCOc2cc(C)ccc2C)cc1 | 8.75 |
| O=Cc1ccc(OC(=O)C2CC(=O)N(c3ccc(F)cc3)C2)cc1 (stereo not drawn) | 15.6 |
| CCOC(=O)C1(Cc2cccc(F)c2)CCN(CC(O)CO)CC1 (stereo not drawn) | 12.9 |
| Cc1ccn2c(=O)nc(SCC(=O)c3ccccc3)nc2c1 | 3.64 |
| COC(=O)c1c(NC(=O)c2ccc([N+](=O)[O-])o2)sc2c1CCN(C(C)C)C2.Cl | 8.41 |
| COC(=O)C(O)(CC(=O)Nc1cc(OC)c(OC)c(OC)c1)C(F)(F)F (stereo not drawn) | 14.7 |
